From the supplement of paper PMC9446081
Among all 39,000 compounds or so, about 220 (0.56%) showed activity. The list shows a part of the results.

system: Escherichia coli K-12 BW25113; assay: relative growth (OD600 normalised to plate interquartile mean) (fraction); higher = less growth inhibition, active = 0.2 or less; conditions: 50 µM; LB; incubation time: overnight (16-24 h)
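Further: static incubation at 37 °C against the wild-type strain, values averaged over two biological replicates.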

Row | SMILES | relative growth
1 | Cc1noc(C)c1S(=O)(=O)Nc1ccc2c(c1)C(=O)N([C@@H](C)CO)C[C@H](C)[C@H](CN(C)C(=O)Nc1ccc(F)cc1)OCCCC[C@H](C)O2 | inactive: 0.983
2 | COc1ccc(cc1)CN1CC[C@]2(CC1)CN([C@H](CO)c1[nH]c3cc(ccc3c12)OC)C(=O)Nc1ccc(cc1)F | inactive: 0.985
3 | C=CCC[C@H](Cc1ccc(F)cc1)C(=O)OC[C@H](Cc1c[nH]c2ccccc12)NC(=O)[C@@H](CC=C)CC(=O)N(CCO)Cc1ccccc1 | inactive: 1.06
4 | C=CC[C@@H](CC(=O)N[C@H](CO)Cc1ccccc1)C(=O)NC[C@H](OC(=O)[C@@H](CC=C)Cc1ccc(F)cc1)c1ccccc1 | inactive: 1.04
5 | COCCNC(=O)C[C@@H]1CC[C@@H]2[C@H](COC[C@H](O)CN2S(=O)(=O)c2ccccc2F)O1 | inactive: 0.999
6 | C[C@@H]1CCCCO[C@H](CN(C)S(=O)(=O)c2ccc(F)cc2)[C@@H](C)CN([C@@H](C)CO)C(=O)c2cc(NC(=O)Nc3ccc(C(F)(F)F)cc3)ccc2O1 | inactive: 0.967
7 | CNC(=O)c1c(I)c(C(=O)NCC(=O)Nc2c(I)c(C(=O)O)c(I)c(C(=O)NCCO)c2I)c(I)c(N(C)C(C)=O)c1I | inactive: 0.982
8 | C[C@@H]1CN([C@H](C)CO)C(=O)c2cc(NC(=O)C3CCCCC3)ccc2O[C@@H](C)CCCCO[C@@H]1CN(C)C(=O)c1ccccc1 | inactive: 1.03
9 | COc1ccc(S(=O)(=O)N(C)C[C@@H]2OCCCC[C@H](C)Oc3ccc(NC(=O)Nc4ccc(C(F)(F)F)cc4)cc3C(=O)N([C@H](C)CO)C[C@H]2C)cc1 | inactive: 0.99
10 | CN(C)CC(=O)N[C@@H]1C=C[C@H](CC(=O)NCCN2CCCCC2)O[C@@H]1CO | inactive: 0.999
11 | COc1cccc(S(=O)(=O)Nc2ccc3c(c2)[C@H]2C[C@@H](CC(=O)NCC(F)(F)F)O[C@@H](CO)[C@H]2O3)c1 | inactive: 1.03
12 | C[C@@H]1CCCCO[C@@H](CN(C)Cc2ccc(C(F)(F)F)cc2)[C@@H](C)CN([C@@H](C)CO)C(=O)c2cc(NC(=O)Nc3ccc(C(F)(F)F)cc3)ccc2O1 | inactive: 1.05
13 | C=CCOC(=O)[C@H]1[C@@H]2C(=O)O[C@@H](c3ccccc3)[C@@H](c3ccccc3)N2[C@@H](c2ccc(OCCOC(=O)NCCCCCC(=O)NO)cc2)[C@@]12C(=O)Nc1ccc(I)cc12 | inactive: 0.993
14 | Cc1noc(C)c1NC(=O)N(C)C[C@H]1Oc2ccc(NS(=O)(=O)c3ccccc3)cc2CC(=O)N([C@@H](C)CO)C[C@H]1C | inactive: 1
15 | C[C@H]1CN([C@@H](C)CO)C(=O)c2cc(NS(=O)(=O)c3cn(C)cn3)ccc2O[C@@H]1CN(C)C(=O)Nc1ccc2c(c1)OCO2 | inactive: 0.99
16 | CC1=Nc2ccc(Cl)cc2S(=O)(=O)N1 | inactive: 1.03
17 | CC(=O)N1[C@@H]2c3cccc(=O)n3C[C@@H]2[C@@H](CO)[C@@H]1C(=O)N1CCc2ccccc2C1 | inactive: 1.02
18 | COc1ccc(NC(=O)Nc2cccc3c2O[C@@H](CN(C)Cc2ccc(Oc4ccccc4)cc2)[C@H](C)CN([C@@H](C)CO)C3=O)cc1 | inactive: 1.04
19 | NC(C(=O)O)C(O)c1ccc(O)c(O)c1 (stereo not given) | inactive: 0.967
20 | O=S1(=O)CCN(CC2CCCC2)CC1 | inactive: 0.99

Row | SMILES | relative growth
21 | CCCC(=O)Nc1ccc2c(c1)C(=O)N(C)C[C@@H](OC)[C@H](C)CN(Cc1cc(-c3ccccc3)on1)[C@H](C)CO2 | inactive: 1.03
22 | Cc1noc(C)c1NC(=O)N(C)C[C@@H]1Oc2ccc(NS(=O)(=O)c3cn(C)cn3)cc2C(=O)N([C@@H](C)CO)C[C@H]1C | inactive: 0.997
23 | CC(C)NC(=O)N(C)C[C@@H]1Oc2cc(C#Cc3ccc(F)cc3)ccc2S(=O)(=O)N([C@H](C)CO)C[C@H]1C | inactive: 1.02
24 | COc1ccc(S(=O)(=O)N2C[C@@H](O)COC[C@H]3O[C@H](CC(=O)NCCCN4CCOCC4)CC[C@@H]32)cc1 | inactive: 0.993
25 | CC(C)CN1C(=O)[C@@]2(Cc3ccccc31)c1ccccc1C(=O)N(Cc1ccccc1Cl)[C@H]2c1ccc(CO)cc1 | inactive: 0.997
26 | C[C@@H]1CN([C@H](C)CO)C(=O)c2cccc(NC(=O)c3nc4ccccc4s3)c2O[C@H]1CN(C)Cc1ccc(-c2ccccc2)cc1 | inactive: 0.823
27 | C[C@@H]1CN([C@H](C)CO)S(=O)(=O)c2ccc(C#CCN(C)C)cc2O[C@H]1CN(C)S(=O)(=O)c1cccc(F)c1 | inactive: 1.01
28 | COc1cc(Nc2ncc(F)c(Nc3ccc4c(n3)N(COP(=O)(O)O)C(=O)C(C)(C)O4)n2)cc(OC)c1OC | inactive: 1.03
29 | O=c1[nH]c(=O)n([C@H]2C[C@H](O)[C@@H](CO)O2)cc1CO | inactive: 1.04
30 | Cc1cccc(S(=O)(=O)N2C[C@H](O)COC[C@H]3O[C@H](CC(=O)NCc4ccncn4)CC[C@@H]32)c1 | inactive: 1
31 | C[C@@H]1CN([C@H](C)CO)C(=O)c2cc(NS(=O)(=O)c3cn(C)cn3)ccc2O[C@@H]1CN(C)CC1CCCCC1 | inactive: 1.02
32 | C[C@H]1CN([C@@H](C)CO)S(=O)(=O)c2ccc(C#Cc3cccc(F)c3)cc2O[C@@H]1CN(C)S(=O)(=O)c1cn(C)cn1 | inactive: 1.01
33 | N=C1CCCN1Cc1[nH]c(=O)[nH]c(=O)c1Cl | inactive: 0.975
34 | Cc1ccc(NC(=O)N(C)C[C@@H]2OCCCC[C@H](C)Oc3ccc(NC(=O)C4CCCCC4)cc3C(=O)N([C@H](C)CO)C[C@@H]2C)cc1 | inactive: 1.01
35 | CN(C)C1CCN(C(=O)c2cnc(-c3noc4cc(-c5ccccc5C(F)(F)F)ccc34)s2)CC1 | inactive: 0.985
36 | CCCNC(=O)Nc1ccc2c(c1)OC[C@H](C)N(C(=O)C1CCOCC1)C[C@H](C)[C@@H](OC)CN(C)C2=O | inactive: 0.991
37 | Cc1ccc(S(=O)(=O)Nc2ccc3c(c2)CC(=O)N([C@@H](C)CO)C[C@@H](C)[C@H](CN(C)S(C)(=O)=O)O3)cc1 | inactive: 0.979
38 | C[C@@H]1CN([C@@H](C)CO)C(=O)Cc2cc(NS(C)(=O)=O)ccc2O[C@H]1CN(C)Cc1ccc2c(c1)OCO2 | inactive: 0.985
39 | C[C@@H]1CN([C@H](C)CO)C(=O)c2cc(NS(=O)(=O)c3cccs3)ccc2O[C@@H](C)CCCCO[C@@H]1CN(C)C(=O)c1ccccc1 | inactive: 1.02
40 | CC(C(=O)O)c1ccc(N2Cc3ccccc3C2=O)cc1 (stereo not given) | inactive: 1.1

Row | SMILES | relative growth
41 | C[C@@H]1CN([C@@H](C)CO)C(=O)c2cccc(NC(=O)c3ccc(-c4nccs4)cc3)c2O[C@@H]1CN(C)C(=O)Nc1ccc2c(c1)OCO2 | inactive: 1.02
42 | COC(=O)CC1C(C)(C)C(=O)C2CC3C4=CC(=O)OC(c5ccoc5)C4(C)CCC3C1(C)C2=O (stereo not given) | inactive: 1.07
43 | O=C(C[C@H]1CC[C@H](NC(=O)CN2CCOCC2)[C@H](CO)O1)NCc1cccc(F)c1 | inactive: 1.01
44 | C[C@H]1CN([C@@H](C)CO)S(=O)(=O)c2ccc(Br)cc2O[C@H]1CN(C)S(=O)(=O)c1ccc(F)cc1 | inactive: 1.04
45 | C[C@H]1CN([C@@H](C)CO)C(=O)CCCn2cc(nn2)CO[C@@H]1CN(C)S(=O)(=O)c1ccc(Cl)cc1 | inactive: 1.01
46 | C=CC[C@H](CC(=O)N(CCO)Cc1ccccc1)C(=O)N[C@H](COC(=O)[C@@H](CC=C)CC(=O)OC(C)(C)C)Cc1c[nH]c2ccccc12 | inactive: 1.11
47 | O=C(O)CN(CC(=O)O)Cc1cc2c(-c3ccccc3C(=O)O)c3cc(CN(CC(=O)O)CC(=O)O)c(=O)cc-3oc2cc1O | inactive: 0.995
48 | CO[C@H](CN(C)C(=O)c1ccc2c(c1)OCO2)[C@H](C)CN([C@H](C)CO)S(=O)(=O)c1ccc(C)cc1 | inactive: 1.02
49 | COc1ccc(NC(=O)N(C)C[C@H]2Oc3c(NC(=O)c4cnccn4)cccc3C(=O)N([C@H](C)CO)C[C@@H]2C)cc1 | inactive: 1
50 | C[C@@H]1CN([C@@H](C)CO)C(=O)c2cc(NC(=O)C3CC3)ccc2O[C@H]1CN(C)C(=O)NC1CCCCC1 | inactive: 0.973
51 | C[C@@H]1CCCCO[C@@H](CN(C)C(=O)c2ccccc2)[C@H](C)CN([C@H](C)CO)C(=O)c2cc(NC(=O)c3ccccc3)ccc2O1 | inactive: 1.02
52 | CC(=N)NCc1cccc(CN)c1 | inactive: 0.997
53 | C[C@@H]1CCCCO[C@@H](CN(C)C(=O)C2CCCCC2)[C@@H](C)CN([C@H](C)CO)C(=O)c2cc(NC(=O)NC3CCCCC3)ccc2O1 | inactive: 0.987
54 | CC(C)c1cccc(NC(=O)C[C@H]2CC[C@H]3[C@@H](COc4ccc(NS(=O)(=O)c5ccccc5Cl)cc4C(=O)N3C)O2)c1 | inactive: 1.03
55 | C[C@@H]1CN([C@H](C)CO)C(=O)c2cc(NS(=O)(=O)c3cccs3)ccc2O[C@@H]1CN(C)S(=O)(=O)c1ccc(F)cc1 | inactive: 1.01
56 | CCCNC(=O)Nc1ccc2c(c1)OC[C@@H](C)N(Cc1ccc(-c3ccccn3)cc1)C[C@H](C)[C@H](OC)CN(C)C2=O | inactive: 0.996
57 | O=C(C[C@H]1CC[C@H]2[C@@H](COC[C@@H](O)CN2S(=O)(=O)c2ccc(Oc3ccccc3)cc2)O1)NC1CCC1 | inactive: 0.998
58 | Cc1ccccc1S(=O)(=O)N1C[C@H](O)COC[C@H]2O[C@@H](CC(=O)N3CCN(C)CC3)CC[C@@H]21 | inactive: 0.995
59 | CC(C)NC(=O)N(C)C[C@@H]1Oc2ccc(NS(=O)(=O)c3cccs3)cc2CC(=O)N([C@@H](C)CO)C[C@H]1C | inactive: 0.999
60 | CNC[C@H]1Oc2ccc(NS(=O)(=O)c3cn(C)cn3)cc2CC(=O)N([C@@H](C)CO)C[C@H]1C | inactive: 0.984
